# Data taken from PubChem BioAssay AID1347430 (National Center for Advancing Translational Sciences (NCATS), 2020).
# Among all 91,000 compounds or so, about 130 (0.14%) were called active. Inconclusive results, whose numbers are uncertain, are shown with a selection of clear calls. Calls come from the whole dose curve; as a rule, active = well fitted inhibition curve with a large enough effect; inconclusive = small, poorly fitted or top-dose-only effect; inactive = flat fitted curve, though single readings scatter. A potency beside an inconclusive call is a rough fit, not a confirmed value.
# Test system: Uracil-DNA glycosylase
# Assay: Primary qHTS assay for inhibitors of Activation Induced Cytidine Deaminase (AID): UDG Counterscreen signal; note: nearly all actives have a fitted effect of over 65% in size
# Conditions: FRET deamination/UDG coupled assay, UDG read, 4 h; series mostly up to 115 µM
# Potency is the fitted concentration of half-maximal effect; tags give direction and shape of the fitted curve.
row,SMILES,Potency
1,CCCSCCCNC(=O)C1CCN(C(=O)c2cnn(-c3ccccc3)c2-n2cccc2)CC1,"inconclusive: 100 µM [inhibitor, partial curve, poor fit]"
2,CCc1ccccc1S(=O)(=O)Cc1ccc(C(=O)NCc2ccc(Cl)cc2)o1,"inconclusive: 79.4 µM [inhibitor, partial curve, poor fit]"
3,COc1ccc(CCC(=O)NCc2ccc3c(c2)CCN3C(=O)c2ccc(Cl)cc2)cc1,"inconclusive: 89.1 µM [inhibitor, partial curve, poor fit]"
4,COC(=O)c1ccc(NC(=O)CN2CCCN(Cc3ccc(Cl)cc3)S2(=O)=O)cc1,"inconclusive: 89.1 µM [inhibitor, single point]"
5,O=C(Nc1ccccc1C(=O)N1CCC(Cc2ccccc2)CC1)c1ccco1,inactive
6,COc1cc(Nc2ncc3c(n2)CCN(Cc2ccc(OC(C)C)c(OC)c2)C3)cc(OC)c1,"inconclusive: 35.5 µM [inhibitor, partial curve, poor fit]"
7,CCN1CCN(c2nnc(-n3cccc3C(=O)NCc3ccccc3OC)s2)CC1,"inconclusive: 79.4 µM [inhibitor, single point]"
8,Cc1c(C)c(OC(=O)c2ccccc2)c(Cc2nc3ccccc3s2)c(C)c1O,"inconclusive: 25.1 µM [inhibitor, partial curve]"
9,Cc1cccc(NC(=O)CSc2ccc(-c3sc(-c4ccccc4)nc3C)nn2)c1C,"inconclusive: 89.1 µM [inhibitor, single point]"
10,O=C(CSc1cccc[n+]1[O-])Nc1cccc2ccccc12,inactive
11,O=C(OCc1cc(=O)n2nc(-c3cccs3)sc2n1)c1cccc(F)c1,"inconclusive: 89.1 µM [inhibitor, single point]"
12,COc1cc(C(=O)/C=C/c2cccc(F)c2)ccc1S(C)(=O)=O,inactive
13,N#Cc1ccccc1NC(=O)CSc1nc(-c2ccccc2)cc(C(F)(F)F)c1C#N,"inconclusive: 89.1 µM [inhibitor, single point]"
14,Cc1cccc(C)c1OCC(=O)N(Cc1ccccc1F)C1CCS(=O)(=O)C1 (stereo not given),"inconclusive: 89.1 µM [inhibitor, single point]"
15,CCCCC(=O)Nc1ccc2oc(-c3ccc(OC)cc3)nc2c1,"inconclusive: 89.1 µM [inhibitor, single point]"
16,CCOC(=O)Nc1ccc2c(CN3CCC(C(N)=O)CC3)cc(=O)oc2c1,inactive
17,CCN(CC)C(=O)c1sc2c(c1C)c(=O)n(CCc1ccccc1)c(=O)n2Cc1ccc(C)cc1,"inconclusive: 89.1 µM [inhibitor, single point]"
18,FC(F)(F)c1nc2ccccc2n1Cc1nnc2n1N=C(c1ccc(Cl)cc1)CS2,"inconclusive: 56.2 µM [inhibitor, partial curve, poor fit]"
19,CC(C)(C)OC(=O)N1CCC(N2CCN(Cc3ccccc3)C(=O)C2=O)CC1,"inconclusive: 100 µM [inhibitor, single point]"
20,CCOc1ccc(NC(=O)C(CC(C)C)N2Cc3ccccc3C2=O)cc1 (stereo not given),"inconclusive: 79.4 µM [inhibitor, partial curve]"
21,CCOc1ccccc1OCCCCn1c(-c2ccc(Cl)cc2)nc2ccccc2c1=O,inactive
22,Cc1ccc(-n2ncc3c(N(C)C)ncnc32)cc1Cl,"inconclusive: 89.1 µM [inhibitor, single point]"

row,SMILES,Potency
1,CCCCCN1C(C(=O)c2ccccc2)=C(NC(=O)c2ccc(C)cc2)c2ccccc2S1(=O)=O,"inconclusive: 2.82 µM [inhibitor, partial curve, poor fit]"
2,CCCC(C)NC(=O)NC(C)c1cccc(Cl)c1 (stereo not given),inactive
3,O=C(NCCc1nc2ccccc2n1Cc1c(F)cccc1Cl)c1ccco1,"inconclusive: 100 µM [inhibitor, single point]"
4,CC(C)(C)OC(=O)N1CCC(c2c(C(=O)N3CCN(c4ccccc4F)CC3)cnn2-c2ccccc2Cl)CC1,"inconclusive: 79.4 µM [inhibitor, single point]"
5,O=c1c(NCc2ccccc2Cl)nccn1-c1ccccc1,"inconclusive: 89.1 µM [inhibitor, single point]"
6,CCN(C(=O)c1oc2c(c1C)C(=O)CC(C)(C)C2)c1ccccc1,"inconclusive: 89.1 µM [inhibitor, single point]"
7,CC(C)NC(=O)c1ccc(NC(=O)C(F)(F)C2(F)OC(F)(F)C(F)(F)C2(F)F)cc1 (stereo not given),inactive
8,CCCOc1ccc(CNC(=O)c2oc3ccc4c(c3c2C)C(=O)CC(C)(CC)O4)cc1 (stereo not given),"inconclusive: 56.2 µM [inhibitor, partial curve, poor fit]"
9,CNc1ccc(-c2nc(-c3ccccc3C)no2)cc1[N+](=O)[O-],"inconclusive: 100 µM [inhibitor, single point]"
10,O=S(=O)(NCC(c1ccco1)N1CCOCC1)c1ccc(Br)cc1 (stereo not given),"inconclusive: 89.1 µM [inhibitor, single point]"
11,CCCNCc1ccsc1,inactive
12,CC(C)c1ccc(NC(=O)CSC2=Nc3ccccc3C3=NC(CC(=O)NCc4cccs4)C(=O)N23)cc1 (stereo not given),"inconclusive: 89.1 µM [inhibitor, partial curve, poor fit]"
13,CCCCn1c(=NC(=O)C(C)(C)Oc2ccc(Cl)cc2)c(C(=O)OCC)cc2c(=O)n3ccccc3nc21,"inconclusive: 89.1 µM [inhibitor, single point]"
14,Cc1ccc(S(=O)(=O)N2CCn3cccc3C2c2ccccc2)cc1 (stereo not given),active: 89.1 µM
15,COc1ccc(S(=O)(=O)c2c(SC)nn(CC(=O)Nc3ccc(C)c(Cl)c3)c2N)cc1,"inconclusive: 79.4 µM [inhibitor, partial curve, poor fit]"
16,CC(C)(C)C1CCc2nc(NC(=O)COc3ccccc3[N+](=O)[O-])sc2C1 (stereo not given),"inconclusive: 100 µM [inhibitor, single point]"
17,Cc1ccc(Nc2nc(NC3CCCC3)nc3c2cnn3-c2ccccc2)cc1,inactive
18,CC(C)C(NC(=O)c1ccccc1Cl)c1nnc(SCC(=O)c2ccccc2)n1C (stereo not given),inactive
19,O=C1OC(C(=O)OCc2ccc3c(c2)OCO3)Cc2ccccc21 (stereo not given),inactive
20,COc1cccc(CNC(=O)c2cc3cc(OC)ccc3[nH]2)c1,inactive
21,CCN(C(=O)COc1ncnc2c(Cl)cc(Cl)cc12)c1ccccc1,inactive
22,O=C(NCc1ccc(F)cc1)c1cnc(N2CCOCC2)c2ccccc12,"inconclusive: 89.1 µM [inhibitor, single point]"

row,SMILES,Potency
1,COc1ccccc1CN1CCC(CNS(=O)(=O)c2cc(-c3onc(C)c3C)ccc2OC)CC1,"inconclusive: 100 µM [inhibitor, single point]"
2,COc1ccc(NC(=O)Cn2c(=O)n(CCC(C)C)c(=O)c3cccnc32)cc1Cl,"inconclusive: 89.1 µM [inhibitor, single point]"
3,CCOc1ccccc1CNC(=O)c1nc(-c2ccc(Cl)cc2)n2c1CCCCC2,"inconclusive: 89.1 µM [inhibitor, partial curve, poor fit]"
4,CCNc1ccc(-c2nc(-c3ccccn3)no2)cc1[N+](=O)[O-],"inconclusive: 100 µM [inhibitor, single point]"
5,CCCCOc1ccc(C2=NC(c3cccs3)=Nc3ccc(CC)cc3N2)cc1,"inconclusive: 56.2 µM [inhibitor, partial curve, poor fit]"
6,CC(=O)Nc1ccc(S(=O)(=O)N2CCC(c3nnc(-c4ccc(C)cc4)o3)CC2)cc1,"inconclusive: 79.4 µM [inhibitor, single point]"
7,CCN(CC)C(=O)c1sc2c(c1C)c(=O)n(-c1ccc(Cl)c(Cl)c1)c(=O)n2Cc1cc(=O)n2ccccc2n1,"inconclusive: 89.1 µM [inhibitor, partial curve, poor fit]"
8,CCC(C)Cn1c(/C=C/c2ccccc2)nc2ccccc21 (stereo not given),active: 79.4 µM
9,CSc1ccc(/C=N/Nc2ccc(Cl)c(Cl)c2)cc1,inactive
10,CCCOc1ccc(C(=O)Nc2cc3c(cc2N2CCOCC2)n(C)c(=O)n3C)cc1,"inconclusive: 89.1 µM [inhibitor, single point]"
11,Cc1ccc(N2CCN(S(=O)(=O)c3cc(C(=O)Nc4cc(Cl)cc(Cl)c4)ccc3F)CC2C)cc1 (stereo not given),"inconclusive: 10 µM [inhibitor, partial curve, poor fit]"
12,COc1ccc(OC)c2sc(N3CCN(C(=O)c4ccc5c(c4)CCCC5)CC3)nc12,"inconclusive: 89.1 µM [inhibitor, partial curve, poor fit]"
13,CCOC(=O)c1ccc(CN(Cc2ccc(Cl)cc2Cl)S(=O)(=O)c2ccc(F)c(C)c2)cc1,inactive
14,CCCOC(=O)Nc1ccccc1N=C1CCC/C1=C\c1ccccc1,inactive
15,COc1ccc(-c2cnc(C)o2)cc1S(=O)(=O)Nc1cccc(C(F)(F)F)c1,"inconclusive: 89.1 µM [inhibitor, single point]"
16,NC(=O)C1CCN(c2ncnc3c2cnn3-c2cccc(Cl)c2)CC1,"inconclusive: 89.1 µM [inhibitor, single point]"
17,CCc1ccc(N2CC(c3nc4ccccc4n3Cc3ccccc3C)CC2=O)cc1 (stereo not given),"inconclusive: 79.4 µM [inhibitor, partial curve, poor fit]"
18,CCOc1ccccc1/C=C/c1onc(C)c1S(=O)(=O)N1CCC(C(=O)N2CCCCC2)CC1,"inconclusive: 79.4 µM [inhibitor, single point]"
19,CCCNC(=O)c1cccc(CNCc2ccc(F)cc2)c1,inactive
20,O=C(NCCNc1ncccc1C(F)(F)F)Nc1ccc(F)cc1F,inactive
21,Cc1ccc(-c2ccc(=O)n(Cc3noc(C(=O)NCCc4cccs4)n3)n2)cc1,"inconclusive: 70.8 µM [inhibitor, partial curve, poor fit]"
